# The campaign covered roughly 310,000 compounds. About 14,000 (4.5%) showed an effect of 50% or more. Effects have a minus sign here. The list shows a part of the results.
# Target: human ether-à-go-go-related gene (hERG) potassium channel (human, UniProt Q12809)
# Experiment: primary screen, population patch clamp on CHO cells stably expressing hERG
# 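Note: peak tail current of the secondary pulse compared with the same well before compound.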
# human ether-à-go-go-related gene (hERG) potassium channel, sequence (Q12809 whole entry, looked up): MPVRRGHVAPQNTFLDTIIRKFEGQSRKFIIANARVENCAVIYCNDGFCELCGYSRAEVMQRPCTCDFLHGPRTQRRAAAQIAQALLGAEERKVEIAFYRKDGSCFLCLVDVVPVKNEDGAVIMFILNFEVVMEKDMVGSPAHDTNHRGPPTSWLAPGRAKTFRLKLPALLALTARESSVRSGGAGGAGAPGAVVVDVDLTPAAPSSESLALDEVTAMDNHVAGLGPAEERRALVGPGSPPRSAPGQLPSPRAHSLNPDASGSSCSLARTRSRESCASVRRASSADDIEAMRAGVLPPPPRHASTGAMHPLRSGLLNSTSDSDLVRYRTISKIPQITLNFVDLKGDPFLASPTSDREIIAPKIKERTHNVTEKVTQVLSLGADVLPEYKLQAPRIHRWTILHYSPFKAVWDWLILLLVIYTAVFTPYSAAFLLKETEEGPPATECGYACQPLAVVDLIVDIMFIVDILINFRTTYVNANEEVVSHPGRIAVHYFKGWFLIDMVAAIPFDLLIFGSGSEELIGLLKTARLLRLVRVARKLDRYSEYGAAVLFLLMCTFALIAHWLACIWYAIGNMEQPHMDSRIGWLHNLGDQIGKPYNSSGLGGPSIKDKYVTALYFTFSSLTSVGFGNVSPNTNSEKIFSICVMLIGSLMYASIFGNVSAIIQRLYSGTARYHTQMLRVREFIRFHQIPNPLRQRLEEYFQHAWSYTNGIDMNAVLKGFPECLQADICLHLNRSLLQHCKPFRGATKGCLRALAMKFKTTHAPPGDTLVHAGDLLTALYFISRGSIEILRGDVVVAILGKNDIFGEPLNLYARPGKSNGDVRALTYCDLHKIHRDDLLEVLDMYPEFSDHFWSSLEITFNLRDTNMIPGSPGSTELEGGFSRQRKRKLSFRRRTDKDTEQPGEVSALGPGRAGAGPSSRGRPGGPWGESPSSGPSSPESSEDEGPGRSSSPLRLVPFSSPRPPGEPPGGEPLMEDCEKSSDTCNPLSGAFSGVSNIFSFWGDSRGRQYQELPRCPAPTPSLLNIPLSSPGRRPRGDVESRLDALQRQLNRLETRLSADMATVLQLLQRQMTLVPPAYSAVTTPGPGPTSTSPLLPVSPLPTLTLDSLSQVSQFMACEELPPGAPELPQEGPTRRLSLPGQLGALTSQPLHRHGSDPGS
row,SMILES,"hERG current change (%, negative = inhibition) at 10uM [%]"
1,COc1ccc(CCNC(=O)c2ccc3c(c2)SC2=NS(=O)(=O)CCN23)cc1,-60.4
2,O=C(CCn1c(=O)[nH]c2ccsc2c1=O)N1CCc2ccccc2C1,7.28
3,Cc1ccc(S(=O)(=O)N2CCCCC2)cc1C(=O)N1CCCCCC1,-12.7
4,CCSc1nnc(-c2ccc(S(=O)(=O)N3CCOCC3)cc2)n1CC1CCCO1 (stereo not drawn),3.21
5,CS(=O)(=O)c1ccc(Cl)c(C(=O)NCC2CCCCC2)c1,-6.06
6,O=C(N/N=C/C1CC=CCC1)c1cc2ccccc2cc1O (stereo not drawn),-9.29
7,O=C(COc1ccc(Br)cc1Cl)NC1CCN(Cc2ccccc2)CC1,-67.3
8,O=[N+]([O-])c1ccc(S(=O)(=O)NCC2CC3CCC2C3)cc1 (stereo not drawn),-3.11
9,CCOc1ccc(CCNC(=O)CS(=O)Cc2nc(-c3ccc(OC)cc3)oc2C)cc1OCC (stereo not drawn),-14.7
10,Cc1nc(NC(=O)c2cc(-n3cnnc3)ccc2Cl)ccc1Br,-26.8
11,COc1cccc(/C=C/C(=O)NNC(=O)c2cc(C)oc2C)c1,-25.6
12,O=c1[nH]c2ccccc2nc1NCc1ccccc1,11.8
13,Cc1c(C(=O)Nc2nc3ccccc3[nH]2)oc2c(Cl)cccc12,7.69
14,COc1ccccc1/C=C/C=C1\Oc2c(ccc(O)c2CN(C)C)C1=O,-27.8
15,Cc1[nH]n(-c2ccccc2)c(=O)c1C(C[N+](=O)[O-])c1ccccc1Cl (stereo not drawn),16.3
16,O=C1CCc2cc(S(=O)(=O)Nc3ccccc3F)ccc2N1,-2.66
17,O=c1cc(-c2ccccc2Cl)oc2ccc([N+](=O)[O-])c(O)c12,9.93
18,FC(F)(F)c1cc(N2CCNCC2)c2ccccc2n1,4.22
19,COS(=O)(=O)[O-].Cc1ccc(S(=O)(=O)Cc2sc3ccccc3[n+]2C)cc1,8.33
20,O=S(=O)(CCc1nc2ccccc2o1)c1ccc(Cl)c(Cl)c1,13.4
21,CCC1(CC)NC(=O)N(CC(=O)OCn2nnc3ccccc3c2=O)C1=O,15.7
22,COC(=O)COc1cc(=O)oc2ccc(NS(=O)(=O)c3ccccc3)cc12,4.7
23,O=C(NC(Cc1ccccc1)C(=O)O)c1ccco1 (stereo not drawn),21.9

row,SMILES,"hERG current change (%, negative = inhibition) at 10uM [%]"
1,CCCCCCCC(=O)N/N=C(\C)c1ccc(O)cc1O,-1.26
2,Cc1cc(-c2ccccc2)nc(N/N=C/c2ccc(O)cc2O)n1,2.45
3,O=C(Nc1ccc(F)cc1)c1nsc(Cl)c1Cl,2.24
4,CCN(Cc1ccccc1)C(=O)C1CCN(C(=O)Nc2ccccc2)CC1,14.8
5,COc1ccc(OC)c(CNC(=O)C2CCC(=O)N2C(C)C)c1 (stereo not drawn),2.28
6,Cc1ccc(CCNC(=O)C2CC(=O)N(CCc3ccccc3)C2)cc1 (stereo not drawn),-14.1
7,O=C(Nc1ccccc1)N1CCCC1c1cccs1 (stereo not drawn),18
8,CCCCn1nc(C(=O)N2CCN(S(=O)(=O)c3ccccc3)CC2)c2ccccc2c1=O,-40.7
9,Cc1ccc(-n2c(C)cc(/C=N/NC(=O)Cn3c4ccccc4c(=O)c4ccccc43)c2C)cc1,12.4
10,COc1ccc(C(=O)Oc2c(OC)cc(C(=S)N3CCOCC3)cc2OC)cc1,-0.141
11,COC(=O)c1cncn1C(C)c1ccccc1.Cl (stereo not drawn),8.9
12,Cc1csc2ncnc(N3CCN(C(=O)Nc4ccc(OC(F)(F)F)cc4)CC3)c12,-68
13,O=c1c(CN2CCN(Cc3ccccc3)CC2)coc2ccc(Cl)cc12,-42.9
14,COc1ccccc1CNC(=O)COC(=O)CSc1ccc(F)cc1,12.6
15,Cc1ccc(C(=O)N2CC=C(c3ccccc3)CC2)s1,5.93
16,Cn1c(=O)[nH]c(=O)c2c1nc(SCCO)n2CC(O)COc1ccccc1 (stereo not drawn),16.2
17,CSCc1nnc(NC(=O)c2ccc(S(=O)(=O)N(C)C)cc2)o1,20.7
18,Cc1cc2c(cc1S(=O)(=O)N(C)C1CCCCC1)OCC(=O)N2,7.2
19,COc1ccc(CNC(=O)CCCC(=O)Nc2cccc(Br)c2)cc1,-9.81
20,CCCCc1cc(=O)oc2cc(OCC(=O)N3C[C@H]4C[C@@H](C3)c3cccc(=O)n3C4)ccc12,-26.9
21,CCOC(=O)CNC(=O)Cc1ccc(Cl)cc1,12.1
22,COc1cc(CN2CCC(C)CC2)ccc1OCc1ccccc1.O=C(O)C(=O)O,-52.9
